# Data reported in the supplement of paper PMC11417369.
# ± gives the standard deviation of the averaged measurements. The list shows a part of the results.
# System: PfAP2-G AP2 domain (GST-tagged)
# Test: gcPBM binding intensity (ln(normalized median fluorescence intensity)); higher = stronger DNA binding
# How it was run: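 Plasmodium falciparum DNA-binding domains carrying a GST tag were expressed in E. coli and applied for 1 h, at about 25 μg on average, to an Agilent 4 × 180k array. The array held primer-extended double-stranded 36-bp intergenic genomic probes together with negative controls, and binding took place in 1× PBS with 1% milk, 0.2 mg/ml BSA, 0.5% salmon testes DNA and 0.03% Triton X-100. An Alexa488 anti-GST antibody detected bound protein, and the array was scanned at 488 nm. Binding intensity is taken as the highest Masliner-normalised natural-log median intensity across replicate spots of either probe orientation.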
row,Sequence,gcPBM binding intensity (ln)
1,ATATATATATATATATGTACATATTTGATTTTTCTT [XGTACX_site8171],11.1 ± 0.79
2,AAATCTTAACTCTATGCACACATAAAAGTATATAAA [CACACA_site8709],10.1 ± 0.19
3,ATGATATACTTGAGTGTGCACAAACTATTACTTACA,10.6 ± 0.33
4,CACACGCACAGACACACACACACACGGATATAAATA [CACACA_site6301],10.5 ± 0.42
5,TTTTTTTTTTTTTTTTGTACATATAAAAATACGTAA [XGTACX_site6003],11 ± 1.1
6,TCACTACATTTTGGACGTACACAACTTGATATATTG [XGTACX_site4775],11.6 ± 0.98
7,ATCGGTAATATTAACACACACATTTATATATATTTA [CACACA_site1084],10.1 ± 0.14
8,TTTTGTAGATATTGAAGTACAAAAAAAATGTAAAAG [XGTACX_site5905],11.5 ± 1.1
9,ATAATAAATATATAATGTACATATTATGTTCTTTAT [XGTACX_site8655],11 ± 0.65
10,CGCTCTTATAAATGTTGTACATAAAACTGTTCATTA [XGTACX_site3409],11.4 ± 0.83
11,TATATATCGCCCTTCACACACACACGGATATAAATA [CACACA_site7221],10.5 ± 0.47
12,AACATATTTATGATGTGTACCTACATAATAGAATTT [XGTACX_site141],11.1 ± 0.71
13,ATGCGTTAATCTATATATATTATGTATAGATTTTCA [CACACA_negctrl_site1650],9.53 ± 0.21
14,TTTTTTAATATATTATTATAAATATTTTTTATGTGT [GTGCAC_negctrl_site712],9.765 ± 0.007
15,CATAATGTAAATAAGTGTACACATATATAATACATA [XGTACX_site3108],11.6 ± 0.9
16,ATATTTTGATAATATTGTACAAAAACATTAAAATGT [XGTACX_site8361],10.8 ± 0.44
17,GATCATTCAGTTTTATCACACACAATCAAACATATA [CACACA_site8882],10.2 ± 0.18
18,AACATTATGTTTATTTGTACATATAAATATATGTAA [XGTACX_site7389],10.8 ± 0.45
19,TCTTTTATGATATTTACACACAAACGTGAGATAGCT [CACACA_site2312],9.965 ± 0.092
20,CTCTACGAATTCATAGTGCAAAGAGCTAATTTTTTC [GTGCAC_site9710],9.805 ± 0.007
21,AAAAAACTATTATGTGCATGCACAAGTCAGGTAAAT [TGCATGCA_site791],10.3 ± 0.19
22,AAAAAGAAATCCAATACACACCTTCAAAATGGGTAT [CACACA_site4978],9.79 ± 0.2
23,TATTTATAGATATATACACACATATTTATATTTATA [CACACA_site6441],9.71 ± 0.014

row,Sequence,gcPBM binding intensity (ln)
1,CCTATTTATAAATACACACACATATATAAATAAATA [CACACA_site5629],10.3 ± 0.45
2,TTGTTCATATTTTTTATTGTGTTAATATTTATAAAA [GTGCAC_negctrl_site423],10.2 ± 0.27
3,TTAATGTAGAGAAAATGTACATTTTATTAAAACAAT [XGTACX_site6376],10.9 ± 0.4
4,CATTAAATATATAAATGTACAAATATATTTTTCAAA [XGTACX_site4429],10.9 ± 0.52
5,CCTCTTTTTATTCTCACACACGTTTATATATAAAGT [CACACA_site4992],10.5 ± 0.26
6,TTTTAAATATATGTGCTATTATATTAAGAGATGTAA [GTGCAC_negctrl_site560],9.88 ± 0.23
7,ATCTATAAATTTCCACGTACATATATATATATATAT [XGTACX_site4502],11.4 ± 0.93
8,TTTTTTATTTTTGCGTGTACATAATAATGAATCTTC [XGTACX_site8077],11.4 ± 1
9,GAAATTTCCCATATTACACACATACTATGATATATA [CACACA_site5987],10.07 ± 0.092
10,TTCTTTGCTTTTCAAACACACAAAAGTTATTATATT [CACACA_site521],10.04 ± 0.064
11,AAAAGAAAATAAGAAACACACAAAAATATATAAAAA [CACACA_site3697],9.9 ± 0.099
12,TTATAAATGTATTTATGTACATATAAATATATATAA [XGTACX_site2970],11.2 ± 0.66
13,TTTTTTTTTTTTTTGGTGCACATAGAAATTCTAAAA [GTGCAC_site9809],10.5 ± 0.69
14,ATATAAATCAAAAACGCACACATAAATATTTATATA [CACACA_site2442],10.1 ± 0.21
15,ATAAAAGAATAAATAAAACACATATATATATATATA [XGTACX_negctrl_site31],10.1 ± 0.61
16,AAAAGATGCGCATACACACAGATGAATAACAAAAAA [CACACA_site6865],10.1
17,TACGTATGCCTGTGATGTACATATATATATACATAC [XGTACX_site4728],11.3 ± 0.61
18,TTTCGGTTTTTTTTTATTTTTTTTTTTTTATTATTT [CACACA_negctrl_site335],9.75 ± 0.042
19,GCACATTTTTTTATCACACATATAATTACAATATAA [CACACA_site5585],10.2 ± 0.23
20,ATATAGGTAAAAAGTATACACACGTTGACACATTCT [CACACA_site1199],10.19 ± 0.021
21,AATATGATATATATATGTACATATATATAATATAAT [XGTACX_site3072],11.1 ± 0.64
22,AAAGTATAATAATACACACACTTTAAAAGTTAAATG [CACACA_site7550],10.08 ± 0.071
